Experimental data from US20050106730A1, “Compositions and methods utilizing stable reporter cell lines for detection of pathway-specific signal transduction” (priority 1999, published 2005).

Test system: MAPK pathway converging on Elk1 (GAL4-Elk1 fusion)
Experiment: Luciferase reporter assay in RCLH-Elk1 stable reporter cells treated with extracellular stimuli
Conditions: PMA 60 ng/ml, 5 hours

Which “Luciferase expression relative to untreated control” value does the source give for `CCCCCCCCCCCCCC(=O)O[C@@H]1[C@@H](C)[C@@]2(O)[C@@H](C=C(CO)C[C@]3(O)C(=O)C(C)=C[C@@H]23)[C@@H]2C(C)(C)[C@]12OC(C)=O` [PMA, phorbol 12-myristate 13-acetate] here?
The value was roughly 50 fold.
